According to article PMC13083723 (Patterns, 2026):
Hit rate of the full screen: of about 5,400 compounds, about 190 (3.5%) showed an effect of 50% or more. The list shows a part of the results.

tested on: Vero-E6; assay: primary screen, phospholipidosis by LipidTOX staining; higher = more effect of the substance; details: 10 µM
Method in brief: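 Single-concentration screen at 10 μM, with DMSO 0.1 v/v % and amiodarone 10 μM as controls. Read-out is LipidTOX Red phospholipid staining, which tolerates aldehyde fixation, in Vero-E6 cells.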

Compound	result_ITMP [%]
CN(C)c1ccc(/C=C2\CCCN=C2c2cccnc2)cc1	9.85
Nc1ccncc1N	-1.71
CC[C@@H](CO)NC(=O)[C@@H]1C=C2c3cccc4[nH]cc(c34)C[C@H]2N(C)C1	5.79
O=C(O)c1ccc(NC(=O)[C@H](Cc2ccc(O)cc2)NC(=O)c2ccccc2)cc1	-5.89
Oc1ccc2ccccc2c1Cc1c(O)ccc2ccccc12	-2.53
CCC1(C2=NCCN2)Cc2ccccc2O1 (stereo not shown)	0.77
O[C@@](Cc1nc(CC2(C(F)(F)F)CC2)c[nH]1)(c1ccc(-n2cccn2)cc1)C(F)(F)F	0.81
O=c1[nH]c2ccccc2n1C1CCN(CCOc2ccccc2)CC1	6.68
NNC(=O)CN1C(=O)CN=C(c2ccccc2)c2cc(Br)ccc21	2.33
CCOC(=O)c1ncn2c1[C@@H]1CCCN1C(=O)c1cc(OC)ccc1-2	-2.2
CC(C)(C)NCC(O)COc1cccc2c1C[C@H](O)[C@H](O)C2 (mixture of isomers)	-2.49
O=C(O)c1ccc(-n2nc(-c3ccccc3O)nc2-c2ccccc2O)cc1	-0.76
CCC(CC)(NC(=O)C(C)C)C(=O)N[C@@H](CCCNC(=N)N)C(=O)NC1(C(=O)NC(c2ccc(F)cc2)c2ccc(F)cc2)CCCC1	1.23
O=C(Nc1nc(-c2cc(Cl)cs2)c(N2CCN(C3CCCCC3)CC2)s1)c1cnc(N2CCC(C(=O)O)CC2)c(Cl)c1	-2.43
COc1cc(Cc2cnc(N)nc2N)c(C(C)C)cc1OC	-0.7
NC(=O)OCC(O)COc1ccc(Cl)cc1 (stereo not shown)	0.94
N#CCCCSC(=N)N	-2.54
O=C(NCc1cccc(O)c1)Nc1nc(-c2ccncc2)cs1	4.6
Cc1nc[nH]c1CCN	0.11
COC(=O)CCc1ccc(OCC(O)CNC(C)C)cc1 (stereo not shown)	-2.41
COCCOC(=O)C1=C(C)NC(C)=C(C(=O)OC(C)C)C1c1cccc([N+](=O)[O-])c1 (stereo not shown)	-4.25
COc1c(C)c2c(c(O)c1C/C=C(\C)CCC(=O)OCCN1CCOCC1)C(=O)OC2	18.6
CN1C(C(=O)Nc2ccccn2)=C(O)c2ccccc2S1(=O)=O	-3.43
N#C/C(=C\c1cccn1S(=O)(=O)c1cccc([N+](=O)[O-])c1)S(=O)(=O)c1ccc(F)cc1	0.43
CN1CCC(CNc2ccc3ncc(-c4cccc(OC(F)(F)F)c4)n3n2)CC1	62.4
NC(=O)c1ccc[n+]([C@@H]2O[C@H](COP(=O)([O-])OP(=O)(O)OC[C@H]3O[C@@H](n4cnc5c(N)ncnc54)[C@H](O)[C@@H]3O)[C@@H](O)[C@H]2O)c1	-1.76

Compound	result_ITMP [%]
CNCCC=C1c2ccccc2C=Cc2ccccc21	42.4
CC(C)[C@H](NS(=O)(=O)c1ccc(-c2ccc(Br)cc2)cc1)C(=O)O	-5.95
CC(=O)O[C@H]1C[C@@H]2CC[C@@H]3[C@H](CC[C@@]4(C)[C@H]3C[C@H](N3CC[N+](C)(C)CC3)[C@@H]4OC(C)=O)[C@@]2(C)C[C@@H]1N1CC[N+](C)(C)CC1	0.99
NCC(=O)CCC(=O)O	9.37
COc1ccc(CN(CCN(C)C)c2ncccn2)cc1	-9.04
O=C(/C=C/c1cccc(F)c1)NC1CC1	-0.97
Cc1sc(C)c2c1CCC=C2c1c[nH]cn1	-0.01
Cc1cc2c(OCC(CNC(C)(C)C)OC(=O)c3ccccc3)cccc2[nH]1 (stereo not shown)	3.74
CONC(=N)c1ccc(-c2ccc(-c3ccc(C(=N)NOC)cc3)o2)cc1	0.35
Cc1ccc(Sc2ccccc2N2CCNCC2)c(C)c1	57.3
CCC[N+]12C3C[C@H](C4C(O)[C@]5(C[C@@H]41)c1ccccc1N(C)[C@@H]35)[C@H](CC)[C@H]2O (stereo partly shown)	-5.06
O=c1[nH]c2cc(Cl)ccc2c(O)c1-c1cccc(Oc2ccccc2)c1	-1.56
Cc1ccc(C)c(OCCCC(C)(C)C(=O)O)c1	-3.41
C=C1C(=O)O[C@H]2[C@H]1CC/C(C)=C/CC[C@@]1(C)O[C@@H]21 [R4A_0002204_002 / SPE_K34851558]	16.6
Cc1c(N)nc([C@H](CC(N)=O)NC[C@H](N)C(N)=O)nc1C(=O)NC(C(=O)N[C@H](C)[C@@H](O)[C@H](C)C(=O)N[C@H](C(=O)NCCc1nc(-c2nc(C(=O)NCCCNCCCCN)cs2)cs1)[C@@H](C)O)[C@@H](O[C@H]1O[C@H](CO)[C@H](O)[C@@H](O)[C@H]1O[C@H]1O[C@H](CO)[C@@H](O)[C@@H](OC(N)=O)[C@@H]1O)c1c[nH]cn1 (stereo partly shown)	12.8
CN/C(=N\C#N)NCCSCc1csc(N=C(N)N)n1	2.7
O=C(O)C(=O)Nc1cccc(-c2nn[nH]n2)c1	-4.71
Nc1ncnc2c1ncn2C1O[C@H](COP(=O)(O)O)[C@@H](O)[C@H]1O (stereo partly shown)	-0.69
N=C(N)NCCC[C@H](N)C(=O)NCC(=O)N[C@@H](CC(=O)O)C(=O)N[C@@H](CO)C(=O)O	-0.37
CCC(=O)O[C@]1(C(=O)COC(C)=O)CC[C@H]2[C@@H]3C[C@H](C)C4=CC(=O)C=C[C@]4(C)[C@H]3[C@@H](O)C[C@@]21C	-5.06
COc1cc2c(cc1OC)[C@@H]1Cc3ccc(OC)c(OC)c3CN1CC2	0
O=C(CCCN1CCC(O)(c2ccc(Cl)cc2)CC1)c1ccc(F)cc1	3.22
CC(C)=CCC[C@](C)(O[C@@H]1O[C@H](CO)[C@@H](O)[C@H](O)[C@H]1O)[C@H]1CC[C@]2(C)[C@@H]1[C@H](O)C[C@@H]1[C@@]3(C)CC[C@H](O)C(C)(C)[C@@H]3CC[C@]12C	-6.64
CCCCCCCCCCOc1cc2c(O)c(C(=O)OCC)cnc2cc1OCC	-0.21
Cc1ccc(Oc2ccccc2-c2csc(NC3=NCCCN3)n2)c(C)c1	6.61
CC(=O)NCCNc1cc(Cl)nn2c(-c3cccc(S(=O)(=O)N(C)C)c3)c(C)nc12	-1.93
